The text below walks through data of PubChem BioAssay AID485344 (National Center for Advancing Translational Sciences (NCATS), 2010).

Hit rate of the full screen: of about 340,000 compounds, about 6,900 (2%) were called active. Cut-off read from the data, not from the text of the source: active = inhibition above about 30%; inactive = below that, where a call was filed. The list shows a part of the results, in another mix than the full data. The source gives no active or inactive call for entries shown without one.

In the test the target is D(2) dopamine receptor (Homo sapiens) (UniProt P14416). In words: HTS Assay for Allosteric Antagonists of the Human D2 Dopamine Receptor: Primary Screen for Antagonists. Note: 0% is about no effect. As to conditions: HEK293 TREx D2 cells, calcium flux, dopamine EC80; at 10 µM; stronger effect = higher value. The method, boiled down: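 In this primary screen, negative modulation is detected by tracking calcium flux after an EC80 dopamine challenge in inducible HEK293 T-REx D2 cells preexposed to test compound for 180 s.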
UniProt P14416, sequence (P14416 whole entry, looked up): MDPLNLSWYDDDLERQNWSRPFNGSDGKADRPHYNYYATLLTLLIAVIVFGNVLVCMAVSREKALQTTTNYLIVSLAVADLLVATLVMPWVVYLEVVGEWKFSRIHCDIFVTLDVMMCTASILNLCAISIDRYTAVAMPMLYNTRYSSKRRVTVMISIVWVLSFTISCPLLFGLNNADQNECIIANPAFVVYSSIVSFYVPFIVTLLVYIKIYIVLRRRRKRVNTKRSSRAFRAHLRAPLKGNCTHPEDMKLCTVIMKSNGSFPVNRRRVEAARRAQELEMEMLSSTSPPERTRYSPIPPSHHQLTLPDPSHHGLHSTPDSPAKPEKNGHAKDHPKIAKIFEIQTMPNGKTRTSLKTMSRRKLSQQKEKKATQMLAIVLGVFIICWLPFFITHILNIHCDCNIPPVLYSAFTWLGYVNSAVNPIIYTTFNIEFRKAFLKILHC
In general, inhibition refers to the drop in the measured response relative to a control, in per cent. With `CCOC(=O)C1CCC(CN(Cc2ccc(OC)cc2)S(=O)(=O)c2ccc(F)c(C(=O)Nc3cc(Cl)ccc3OC)c2)CC1` (stereo not given), the inhibition was -11%.

`Cn1cc(-c2cc3n(n2)CCC(=O)N3CCCC(=O)NCc2ccccc2)c2ccccc21`: the inhibition worked out at 3.03%.

As to `COc1ccc(CNC(=O)CN(C)S(=O)(=O)c2ccc3[nH]c4c(c3c2)CCCC4)cc1`, the inhibition was 6.57%.

Regarding `CCN(CC)CCNC(=O)Cn1cnc2sc(C)c(S(=O)(=O)N3CCC(C)CC3)c2c1=O`, the inhibition is -4.7%.

`COc1ccc(NC(=O)Cc2ccc(NC(=O)N3CCCCc4ccccc43)cc2)c(OC)c1`: the inhibition is 21.6%.

As to `CC(C)c1ccc(NC(=O)c2cc(S(=O)(=O)NCCC3=CCCCC3)ccc2F)cc1`, the inhibition was 2.83%.

On to `O=C(N/N=C/c1cccc2ccccc12)c1cc2ccccc2o1`, for which the inhibition was active: 52%.

For the compound `CC(C)c1nn2c(=O)cc(COC(=O)c3ccc4c(c3)OCO4)nc2s1`, the inhibition is -16.5%.

Take `COC(=O)c1ccc(OCC2c3cc(OC)c(OC)cc3CCN2C(=O)Cc2ccc(OC)c(OC)c2)cc1` (stereo not given): the inhibition worked out at 3.9%.

As to `Cc1cn2c(=O)c(S(=O)(=O)NCCc3ccc(Cl)cc3)c(C)nc2s1`, the inhibition is 10.7%.

For the compound `CC(=O)N1CCc2c(sc3c2c(=O)n(-c2ccccc2)c(=O)n3CC(=O)c2ccc(F)cc2)C1`, the inhibition is -14.2%.

For the compound `COc1cc(C(=O)Nc2nnc(CC(C)(C)C)s2)cc(OC)c1OC`, the inhibition was -14.9%.

With `CCOC(=O)c1sc(NC(=O)Nc2ccc(Cl)cc2)cc1C`, the inhibition was active: 38%.

As for `COc1ccc(OCCCn2c(C)nc3cc(C)c(C)cc32)cc1`, the inhibition is 6.99%.

`Cc1oc(-c2ccccc2F)nc1CS(=O)(=O)CC(=O)NCCCN1CC(C)CC(C)C1` (stereo not given): the inhibition was active: 47.8%.

Consider `COc1cccc2c1cc1c(=O)n(CC(=O)NCCCN3CCN(C)CC3)nc(C)n12`, for which the inhibition is 7.79%.

For `CCC1=C(c2ccc(C)cc2)S(=O)(=O)N=C1N1CCC(C(=O)NCCc2cccc(OC)c2)CC1`, the inhibition amounted to 12.6%.

As to `Cn1nnnc1SCCCNCc1cc(Cl)ccc1OCc1ccccc1`, the inhibition is 9.67%.

For the compound `CC(OC(=O)c1ccc(NC(=O)CC#N)cc1)C(=O)NCCC1=CCCCC1` (stereo not given), the inhibition was active: 38.3%.

For `O=C1Nc2c(c(=O)[nH]c(=O)n2-c2ccc(F)cc2)C1(NS(=O)(=O)c1ccc(Cl)cc1)C(F)(F)F` (stereo not given), the inhibition is -14.5%.

With `COc1ccc(C2=Nc3ccccc3N(CC(=O)Nc3cccc(C(C)=O)c3)C(=O)C2)cc1`, the inhibition came to 8.77%.

For the compound `COc1ccc(CNS(=O)(=O)c2csc(C(N)=O)c2)cc1OC`, the inhibition was -3.64%.

For the compound `Cc1cn2c(=O)cc(COC(=O)c3ccc(NC(=O)c4ccc(C(C)(C)C)cc4)cc3)nc2s1`, the inhibition was -6.27%.

`CCOC(=O)c1ccc(NC(=O)C(CC)Sc2nncn3c2cc2oc(C)cc23)cc1` (stereo not given): the inhibition came to 8.21%.

With `CCC(C)c1ccccc1NC(=O)COC(=O)c1ccc2[nH]c3c(c2c1)CCCC3` (stereo not given), the inhibition is active: 70.5%.

`O=C(N/N=C/C(Br)=C/c1ccccc1)c1ccc([N+](=O)[O-])cc1`: the inhibition was active: 39.1%.

Take `CCCCNc1nc2c(-c3cccc(Br)c3)nnn2c2ccccc12`: the inhibition is -20.1%.

As for `CC1CCCCC1NC(=O)CO/N=C/c1ccc(OC(F)F)cc1` (stereo not given), the inhibition is active: 34.1%.

For the compound `COc1cc([N+](=O)[O-])ccc1NC(=O)N1CCC2(CC1)Nc1cc(F)ccc1-n1cccc12`, the inhibition was found to be 28.4%.

In the case of `CC1CCN(c2nc3c(S(=O)(=O)c4cccc(Cl)c4)nnn3c3ccsc23)CC1`, the inhibition is -5.32%.

For the compound `Cc1ccc(N2CCN(C(=O)CCS(=O)(=O)c3cc4c(cc3Cl)NC(=O)CO4)CC2)c(C)c1`, the inhibition was determined as 16.7%.

Turning to `Cc1ccc(C2C(=O)N(C3CCCCCC3)CC(=O)N2CCC2=CCCCC2)cc1` (stereo not given), the inhibition is 15.1%.

For `CCOC(=O)c1c(-c2ccc(OC)cc2)oc2ccc(OCc3ccc(F)cc3F)cc12`, the inhibition is -8.02%.

Consider `CN(C)c1ccc(CNC(=O)C2CCN(C(=O)c3ccc(-n4ccc5ccccc54)s3)CC2)cc1`, for which the inhibition is -14.7%.

With `Cc1ccc(NC(=O)N2CCC(CN3CCCCC3)CC2)c(Cl)c1`, the inhibition turned out to be 15.2%.

Consider `CCOC(=O)c1cc(-c2ccc(OC)cc2)n(CCC(=O)NCCc2ccc(OCC)c(OCC)c2)c1C`, for which the inhibition is -6.14%.

With `CCn1cc(/C=C(\NC(=O)c2ccc(OC)c(OC)c2)C(=O)NCCCn2ccnc2)c2ccccc21`, the inhibition was -1.22%.

In the case of `Cc1nc2sccn2c(=O)c1S(=O)(=O)Nc1cccc(Cl)c1C`, the inhibition was determined as 10.8%.

For the compound `CCCc1cc(=O)n2nc(N3CCC(C(=O)Nc4c(F)c(F)c(F)c(F)c4F)CC3)sc2n1`, the inhibition is active: 37.5%.

Regarding `CC(=O)c1ccc(N2CCN(S(=O)(=O)c3ccc(-c4cnc(C5CC5)o4)cc3)CC2)cc1`, the inhibition was determined as 16.4%.

As for `Cc1ccc(OCC(=O)Nc2ccc(C(=O)OCc3cc(=O)n4ccsc4n3)cc2)cc1C`, the inhibition is -5.62%.

On to `COc1ccc(Oc2ncnc3c2oc2ccccc23)cc1`, for which the inhibition was -11.8%.

Take `CCOC(=O)c1ccc(NC(=O)C2CCCN(c3cnccn3)C2)cc1` (stereo not given): the inhibition was 9.78%.

As to `O=C(COC(=O)c1ccc([N+](=O)[O-])o1)NC1CCS(=O)(=O)C1` (stereo not given), the inhibition is active: 33.4%.

For `CC(=O)N1c2ccccc2CC1C(=O)N1CCN(c2ccccc2F)CC1` (stereo not given), the inhibition turned out to be 2.74%.

Consider `CCOC(=O)C1=C(CNCc2ccc(Cl)cc2)NC(=O)NC1c1ccccc1` (stereo not given), for which the inhibition is -16.8%.

As to `COc1cc(NC(=O)Cn2cc(S(=O)(=O)N3CCC(C)CC3)c3ccccc3c2=O)cc(OC)c1OC`, the inhibition worked out at 7.75%.

`CCCC(C(=O)Nc1cc(C)c(Cl)cc1OC)N1Cc2ccccc2C1=O` (stereo not given): the inhibition is 1.52%.

Regarding `COc1cccc(/C=C(\C#N)c2nc3ccccc3c(=O)[nH]2)c1OC`, the inhibition was determined as 13.9%.

As to `CCOc1ccc(Nc2ncnc3onc(-c4ccc(Cl)cc4)c23)cc1`, the inhibition was -9.36%.

On to `Cc1ccc(OCC(O)CN2CCN(c3ccccn3)CC2)c(C)c1` (stereo not given), for which the inhibition was active: 64.5%.

On to `COc1cn(CC(=O)Nc2cccc(C)c2)c(CN2CCCCC2)cc1=O`, for which the inhibition was -13.4%.

As to `O=C1NC2(CCOc3ccccc32)C(=O)N1CC(=O)N(Cc1ccccc1)C1CCS(=O)(=O)C1` (stereo not given), the inhibition is active: 40.4%.

For `Cc1ccc(Cl)c(OCCN2CCCC(C)C2)c1` (stereo not given), the inhibition is active: 53.1%.

Consider `Fc1cccc2sc(Nc3nnc(-c4ccccc4)o3)nc12`, for which the inhibition is active: 43.1%.

In the case of `Cc1cc(C)cc(OC(C)C(=O)Nc2nc3c(s2)CCCC3)c1` (stereo not given), the inhibition is 16.9%.

For `COc1ccc(NC(=O)c2ccco2)cc1NC(=O)c1ccc(OC(C)C)cc1`, the inhibition was 16.9%.

Consider `O=C(CSc1nc2ccccc2n1Cc1ccccc1)NCc1ccccc1`, for which the inhibition is -13.5%.

On to `CC(C)CC(NC(=O)C1CCC(C)CC1)C(=O)OCC(=O)c1ccc(Cl)cc1` (stereo not given), for which the inhibition was determined as 11.8%.

`CSc1oc(-c2ccc(F)cc2)nc1S(=O)(=O)c1ccc(Br)cc1`: the inhibition is -4.61%.
